This is one part of the list.
system: S. aureus RN4220; test: growth inhibition call (relative growth <= 0.2); settings: 50 µM

Growth inhibition call, inactive:
NC/C=C\C(=O)O, CNC(=O)CN1CCOC[C@@]2(C1)CN(Cc1ccn(C)n1)CCO2, CCCC[C@@H](CC)COc1ccc(-c2nc(-c3ccc(OC)cc3)nc(-c3ccc(OC[C@@H](CC)CCCC)cc3O)n2)c(O)c1, CN1CCc2cccc3c2C1Cc1ccc(O)c(O)c1-3.Cl (stereo not given), C[C@H]1CN([C@@H](C)CO)C(=O)c2cc(C#CCN(C)C)cnc2O[C@H]1CN(C)Cc1ccc(C(=O)O)cc1, C[C@@H]1CN([C@@H](C)CO)C(=O)c2cccc(NS(=O)(=O)c3cn(C)cn3)c2O[C@@H]1CN(C)Cc1ccccc1, CCCCNc1ccc(C(=O)OCCN(C)C)cc1.Cl, Cc1noc(C)c1NC(=O)N(C)C[C@H]1Oc2ccc(NC(=O)Nc3ccc(C(F)(F)F)cc3)cc2CC(=O)N([C@@H](C)CO)C[C@H]1C, Cc1cc(O)c(C(C)C)cc1Cl, C[C@@H]1CCCCO[C@H](CN(C)C(=O)Nc2ccccc2)[C@H](C)CN([C@H](C)CO)C(=O)c2cc(NC(=O)Nc3ccc(C(F)(F)F)cc3)ccc2O1, C[C@@H]1CCCCO[C@@H](CN(C)C(=O)C2CCCCC2)[C@H](C)CN([C@H](C)CO)C(=O)c2cc(NC(=O)CCC(F)(F)F)ccc2O1, COc1ccc(CNC(=O)C[C@H]2CC[C@H]3[C@H](COc4ccc(NC(=O)C(C)C)cc4C(=O)N3C)O2)cc1, CC1(C)SCN(S(=O)(=O)c2ccccc2)[C@@H]1C(=O)N[C@@H](CNC(=O)NCc1ccccc1)C(=O)O, C[C@@H]1CN([C@@H](C)CO)C(=O)c2cc(NC(=O)Nc3ccccc3)ccc2O[C@@H](C)CCCCO[C@H]1CN(C)Cc1ccc(C(=O)O)cc1, NCCC[C@H](NC(=O)[C@@H]1CCCN1C(=O)[C@@H]1CSSC[C@H](N)C(=O)N[C@@H](Cc2ccc(O)cc2)C(=O)N[C@@H](Cc2ccccc2)C(=O)N[C@@H](CCC(N)=O)C(=O)N[C@@H](CC(N)=O)C(=O)N1)C(=O)NCC(N)=O, COc1cc(/C=C/C(=O)CC2=N/C(=N/Cc3ccc4c(c3)OCO4)S[C@H](c3ccc(O)c(OC)c3)C2)ccc1O, CN1CCN(C(=O)C[C@@H]2C=C[C@H](NC(=O)Nc3ccccc3F)[C@@H](CO)O2)CC1, COc1ccc(S(=O)(=O)N(C)C[C@H]2Oc3ccc(NS(=O)(=O)c4cccs4)cc3CC(=O)N([C@H](C)CO)C[C@H]2C)cc1, COc1cccc(C(=O)Nc2ccc3c(c2)C(=O)N(C)[C@@H]2CC[C@@H](CC(=O)NCC(F)(F)F)O[C@@H]2CO3)c1, C[C@H]1CCCCO[C@@H](CN(C)Cc2ccc(C(=O)O)cc2)[C@@H](C)CN([C@@H](C)CO)C(=O)c2cc(NS(=O)(=O)c3ccc(F)cc3)ccc2O1, COc1ccc(CN(C)C[C@@H]2OCCCC[C@@H](C)Oc3ccc(NS(=O)(=O)c4c(C)noc4C)cc3C(=O)N([C@@H](C)CO)C[C@@H]2C)cc1, O=C(C[C@H]1C[C@H]2c3cc(NS(=O)(=O)c4ccc(F)cc4)ccc3O[C@H]2[C@@H](CO)O1)N1CCCCC1, Cc1cc(C(=O)Nc2cccc3c2O[C@@H](CN(C)Cc2ccccc2)[C@@H](C)CN([C@@H](C)CO)C3=O)n(C)n1, Cc1noc(C)c1NC(=O)N(C)C[C@H]1Oc2ccc(NS(=O)(=O)c3ccccc3)cc2CC(=O)N([C@@H](C)CO)C[C@H]1C, C[C@@H]1CCCCO[C@@H](CN(C)C(=O)C2CCCCC2)[C@@H](C)CN([C@@H](C)CO)C(=O)c2cc(NC(=O)Nc3ccc(C(F)(F)F)cc3)ccc2O1, COc1ccc(CN(C)C[C@@H]2OCCCC[C@H](C)Oc3ccc(NS(=O)(=O)c4ccc(F)cc4)cc3C(=O)N([C@@H](C)CO)C[C@H]2C)cc1, C[C@H]1CN([C@@H](C)CO)C(=O)c2cc(NC(=O)Nc3ccc(F)cc3)ccc2O[C@H]1CN(C)Cc1ccc(C(=O)Nc2ccccc2N)cc1, COC(=O)c1c2oc(c1C(=O)OC)C(=O)N[C@@H](Cc1ccccc1)Cn1cc(nn1)[C@@H](Cc1ccccc1)NC(=O)N[C@@H](COC(=O)NCCCCCC(=O)NO)CC2, C[C@@H]1CN([C@H](C)CO)C(=O)c2cc(NC(=O)Nc3cccc4ccccc34)ccc2O[C@@H]1CN(C)Cc1ccccc1, COc1ccc(NC(=O)Nc2ccc3c(c2)C(=O)N([C@H](C)CO)C[C@H](C)[C@@H](CN(C)S(=O)(=O)c2cccs2)OCCCC[C@@H](C)O3)cc1, CC[C@H](C)[C@H]1O[C@]2(C=C[C@@H]1C)C[C@@H]1C[C@@H](C/C=C(\C)[C@@H](O[C@H]3C[C@H](OC)[C@@H](O[C@H]4C[C@H](OC)[C@@H](NC(C)=O)[C@H](C)O4)[C@H](C)O3)[C@@H](C)/C=C/C=C3\CO[C@@H]4[C@H](O)C(C)=C[C@@H](C(=O)O1)[C@]34O)O2, COc1cccc(-c2cn(CC[C@H]3CC[C@H](NC(=O)CN(C)C)[C@@H](CO)O3)nn2)c1, C[C@@H]1CN([C@@H](C)CO)C(=O)c2cc(C#CCN(C)C)cnc2O[C@@H]1CN(C)C(=O)CN1CCOCC1, COc1ccc(cc1)CN1C[C@]2(CCN(CC2)S(=O)(=O)c2cn(cn2)C)c2c([nH]c3cc(ccc23)OC)[C@H]1CO, C[C@H](CO)N1C[C@H](C)[C@H](CN(C)C(=O)Cc2cccnc2)Oc2cc(C#Cc3ccccc3F)ccc2S1(=O)=O, Cc1noc(C)c1NC(=O)Nc1ccc2c(c1)C(=O)N([C@H](C)CO)C[C@H](C)[C@@H](CN(C)Cc1ccc(C(=O)O)cc1)OCCCC[C@@H](C)O2, C[C@H]1CCCCO[C@H](CN(C)C(=O)Nc2ccc3c(c2)OCO3)[C@@H](C)CN([C@@H](C)CO)C(=O)c2cc(NC(=O)C3CCCCC3)ccc2O1, C[C@H](CO)N1C[C@H](C)[C@H](CN(C)S(=O)(=O)c2cn(C)cn2)Oc2cc(C#Cc3ccc(F)cc3)ccc2S1(=O)=O, CCCCNC(=O)NS(=O)(=O)c1ccc(C)cc1, Cc1ccc(S(=O)(=O)Nc2ccc3c(c2)C(=O)N([C@H](C)CO)C[C@H](C)[C@@H](CN(C)C(=O)Nc2ccc(F)cc2)OCCCC[C@H](C)O3)cc1

Reference: the antibiotic and cytotoxicity screens of Wong et al. (2023)
